Patent US8273855 (JIANGSU NOVAVAC BIO TEC, dated 2012)

Molecular target: T1, F3 on F3-transfected CHO cells (UniProt P12960 21-1001)
T1 construct: whole, on cells; also called F3-CHO; F3-expressing CHO cells
T1 sequence (looked up): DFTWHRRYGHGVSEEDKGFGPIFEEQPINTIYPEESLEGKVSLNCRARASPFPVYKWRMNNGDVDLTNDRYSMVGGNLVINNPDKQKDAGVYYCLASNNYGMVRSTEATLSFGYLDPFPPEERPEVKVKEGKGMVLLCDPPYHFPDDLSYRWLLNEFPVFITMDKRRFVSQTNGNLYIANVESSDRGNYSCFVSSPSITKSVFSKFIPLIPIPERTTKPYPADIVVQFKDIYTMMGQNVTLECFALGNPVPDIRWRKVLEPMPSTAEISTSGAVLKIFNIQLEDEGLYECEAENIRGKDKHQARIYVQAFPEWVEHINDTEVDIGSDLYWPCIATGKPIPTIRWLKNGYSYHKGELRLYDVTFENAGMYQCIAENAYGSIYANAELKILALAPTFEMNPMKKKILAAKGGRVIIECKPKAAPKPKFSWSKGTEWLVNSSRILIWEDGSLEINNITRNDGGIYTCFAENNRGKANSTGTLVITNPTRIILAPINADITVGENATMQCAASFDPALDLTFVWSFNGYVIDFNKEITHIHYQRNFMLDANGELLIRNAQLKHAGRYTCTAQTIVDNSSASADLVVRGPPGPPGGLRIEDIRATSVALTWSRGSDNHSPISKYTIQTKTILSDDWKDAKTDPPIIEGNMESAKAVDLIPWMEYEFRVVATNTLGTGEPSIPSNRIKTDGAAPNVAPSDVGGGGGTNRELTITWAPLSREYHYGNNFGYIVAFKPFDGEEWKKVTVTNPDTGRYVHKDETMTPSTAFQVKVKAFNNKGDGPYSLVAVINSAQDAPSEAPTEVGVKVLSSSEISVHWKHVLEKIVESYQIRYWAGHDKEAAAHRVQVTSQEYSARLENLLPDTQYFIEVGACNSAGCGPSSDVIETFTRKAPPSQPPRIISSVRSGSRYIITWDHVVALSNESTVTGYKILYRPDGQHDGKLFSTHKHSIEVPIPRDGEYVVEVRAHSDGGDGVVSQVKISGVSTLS
Assay: cell adhesion assay, F3-CHO cells on coated substrate

B1: GST (other)
chain: not shown
notes: Control; also called glutathione S-transferase
binding result: no binding (tested: spots of 1.5 µl of 5 µM GST)
